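Assay format: 96-well plates, 48-hour exposure. The concentration for 50% growth inhibition is given as GI50.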 Activity calls are given as the source filed them. No stated cut-off is given here; in the data, active = GI50 up to about 1.1 µM and inactive = higher.
test system: NCI-H322M; experiment: inhibition of tumour cell growth, NCI panel, 48 h

Compound | GI50
NC(=O)c1cc(N(CCO)CCO)c([N+](=O)[O-])cc1[N+](=O)[O-] | inactive: > 100 µM
O=C1c2cccnc2-c2nccc3c2c1nc1ccc(Br)cc13 | active: 0.0327 µM
Cc1ccc(/C=C/C(=O)c2sc(-n3nc(-c4ccccc4)cc3-c3ccccc3)nc2C)cc1 | inactive: > 100 µM
CCOC(=O)c1ccc2nc(-c3ccc(S(=O)(=O)F)cc3)cc(O)c2c1 | inactive: 54.2 µM
Oc1cc(/C=C/c2ccccc2)nc2cc3c(cc12)OCO3 | inactive: 5.94 µM
O=C(NCO)NCOCn1c(=O)n(CO)c(=O)n(CO)c1=O | inactive: > 100 µM
C[N+](C)([O-])Cc1cc(-c2ccccc2)ccc1O | inactive: > 100 µM
CCN(CC)C(=S)N/N=C1\C(=O)Nc2ccccc21 | active: 0.897 µM
Nc1ccn(C2CCC(CO)O2)c(=O)n1 (stereo not given) | inactive: > 100 µM
Cc1cc(=O)oc2cc(OCc3nc4ccccc4c(=O)[nH]3)ccc12 | inactive: > 100 µM
CC(=O)Nc1ncc(Sc2ccccc2C(=O)O)s1 | inactive: > 100 µM
CCOC(=O)c1nnsc1NC(=O)NN | inactive: > 100 µM
Oc1ccc(/N=N/c2ccc(Cl)cc2)cc1 | inactive: 19.1 µM
Cc1ccccc1NC(=O)/C(=N/NC(=O)CC#N)C1C(=O)N(c2ccccc2)N=C1N (stereo not given) | inactive: > 100 µM
Nc1nc(Cl)c(Cl)c(NCC2(O)CCC2)n1 | inactive: > 100 µM
C1=C[C@@H]2c3ccc4cnccc4c3NC[C@@H]2C1 | inactive: > 100 µM
CCCCOC(=O)NC(Nc1ccc(S(=O)(=O)Nc2ccc(OC)nn2)cc1)(C(F)(F)F)C(F)(F)F | inactive: > 100 µM
Nc1cc(N2CCOCC2)nc(=O)n1-c1ccc(Cl)cc1 | inactive: > 100 µM
Cc1cc2c(c(C#N)c1C)NC(=O)C(CC(=O)O)C2=O (stereo not given) | inactive: > 100 µM
O=C1N2CCc3c([nH]c4ccccc34)C23CC2CCCC12S3 (stereo not given) | inactive: > 50 µM
O=C1CSC(c2cccc(Cl)c2)N1c1ccc(-n2c(-c3ccccc3)nc3ccccc3c2=O)cc1 (stereo not given) | inactive: > 100 µM
O=C1[C@@H]2C(c3ccccc3F)=NO[C@@H]2C(=O)N1c1ccc(Cc2ccc(N3C(=O)[C@H]4C(c5ccccc5F)=NO[C@H]4C3=O)cc2)cc1 | inactive: > 100 µM
CCOC(=O)/C(C(=O)Nc1ccc(F)cc1)=C(/N)N1CCCC1 | inactive: > 100 µM

Compound | GI50
COc1cc(CNC(=O)CCCCCCCCCCSSCCCCCCCCCCC(=O)NCc2ccc(O)c(OC)c2)ccc1O | inactive: > 10 µM
CN(C)CCn1c2c3ccccc3ccc2c2oc(=O)c3ccccc3c21 | inactive: 5.26 µM
CN(C)CCNC(=O)c1ccc(Cl)c2c(Nc3ccc(S(=O)(=O)N=C(N)N)cc3)c3ccccc3nc12 | inactive: 4.71 µM
O=C1N=NC(=O)N1c1cc(C(F)(F)F)cc(C(F)(F)F)c1 | inactive: 4.17 µM
O=C1/C(=C(\Nc2ccccc2)c2ccccc2)C=NN1c1ccccc1 | inactive: 81.5 µM
CC1(C)[C@@H]2CC[C@@]1(C)[C@H](O)[C@@H]2SCc1ccccc1 | inactive: 18.2 µM
COc1cccc([C@H]2C/C(=N\NC(=O)C(=O)N[C@@H](C)c3ccccc3)c3ccccc3N2)c1 | active: 0.0942 µM
Cc1cccc(NC(=O)/C(=N\NC(C)(C)C)C2NC(=S)NC2=O)c1C (stereo not given) | inactive: > 100 µM
CC1=C/C(=N\O)C(C(O)(C(F)(F)F)C(F)(F)F)C(C)(C)C1 (stereo not given) | inactive: > 10 µM
CCC1=CCC(P(=O)(c2ccccc2)c2ccccc2)CC1C (stereo not given) | inactive: 62.1 µM
Nc1nccc2c1ncn2C1C=C(CO)C(O)C1O (stereo not given) | inactive: 44.2 µM
C[C@]12CC[C@H](O)C[C@@H]1CC[C@@H]1[C@@H]2CC[C@]2(C)[C@@H](c3cc(C(F)(F)F)[nH]n3)CC[C@@H]12 | inactive: 8.69 µM
CC(=O)OC1COC(Nc2ccc(C(C)=O)cc2)C(OC(C)=O)C1OC(C)=O (stereo not given) | inactive: > 100 µM
CC(C)/C=C1\CCC(CN2CCOCC2)C1=O (stereo not given) | inactive: 25 µM
CCC12CCCC(=O)N1C(CO)C(c1ccccc1)O2 (stereo not given) | inactive: > 100 µM
Cc1cn(C2CC(/[N+]([O-])=N\Nc3ccc([N+](=O)[O-])cc3)C(CO)O2)c(=O)[nH]c1=O (stereo not given) | inactive: 23.7 µM
CCON1CC(C(=O)OC)=C(O)C1=O | inactive: > 100 µM
O=C1c2ccccc2/C=C\C(c2ccccc2)=N/N1c1ccccc1Cl | inactive: 20.7 µM
Cc1ccc(Nc2nc3c(s2)C(=O)c2ccccc2C3=O)c(C)c1 | inactive: 14.8 µM
CN(C)C1(N(C)C)Oc2c(c(=O)n(C)c(=O)n2C)C(c2ccc(Br)cc2)C1(F)F (stereo not given) | inactive: > 100 µM
CC(C)N(C(=O)C12C3C4C5C3C1(C(=O)N(C(C)C)C(C)C)C5(C#N)C42)C(C)C (stereo not given) | inactive: > 100 µM
CCOC(=O)C(C(=O)OCC)=C1C=C(c2ccccc2)c2ccccc21 | inactive: > 100 µM
O=c1nc2n(cc1/C=C\Br)C1CC(O)C(CO2)O1 (stereo not given) | inactive: > 100 µM

Compound | GI50
O=C(CCl)NNC1=Nc2ccc(Cl)cc2SC1 | inactive: 5.47 µM
Cc1cc(=O)[nH]c2cc(NC(=O)C(C)NC(=O)C(C)NC(=O)C(C)NC(=O)OC(C)(C)C)ccc12 (stereo not given) | inactive: > 15 µM
O=C(NC1CCC(=O)N1C(=O)OCc1ccccc1)OCc1ccccc1 (stereo not given) | inactive: > 100 µM
CCOC(=O)CC1CCN(C(=O)c2ccccc2)C2Cc3c([nH]c4ccccc34)C12C[N+](=O)[O-] (stereo not given) | inactive: > 100 µM
COc1cc(CNc2nc3cc(C(F)(F)F)ccc3nc2C(=O)O)cc(OC)c1OC | inactive: 23.2 µM
CC1(C)c2ccccc2C(=O)C12CCC(=O)CC2 | inactive: > 100 µM
COc1cc(/C=C2\NC(=O)C3Cc4c(OC)c(C)c(OC)c(OC)c4C2N3C)c(OC)c(C)c1OC (stereo not given) | inactive: > 100 µM
CO[C@]12C[C@@H](CNC(=O)c3cc(Br)c[nH]3)O[C@H]1NC(=O)N2 | inactive: > 100 µM
COc1cc(/C=N\O)cc(/C=N/O)c1O | inactive: 50.7 µM
C/C(=N\NC(N)=O)C(CN1CCCCC1)C(c1ccccc1)c1c(O)c2ccccc2oc1=O (stereo not given) | inactive: > 100 µM
Cc1cccc(C)c1NC(=O)C(=O)Nn1c(NN)nc2ccccc2c1=O | inactive: > 100 µM
Cc1cc(C)nc(NS(=O)(=O)c2ccc(NC(=O)c3ccc(Cl)c4c(Nc5ccc(S(=O)(=O)Nc6cc(C)on6)cc5)c5ccccc5nc34)cc2)n1 | inactive: 16.9 µM
NCCCN1c2ccccc2Sc2ccc(Cl)cc21 | inactive: 4.17 µM
CC(=O)Nc1cccc(/N=N/N(C)C)c1 | inactive: > 100 µM
c1ccc2c(c1)SC(=C1Sc3ccccc3S1)S2 | inactive: > 100 µM
CCCNC(=O)Nc1ccc2c(c1)Cc1cc(N(CCCl)CCCl)ccc1-2 | inactive: > 100 µM
NCC(O)CNCC/C=C\C/C=C\C/C=C\C/C=C\C/C=C\C/C=C\CCCCC/C=C\CCNCC(O)CN (stereo not given) | inactive: 1.7 µM
COC(=O)/C(C#N)=C(\Nc1ccccc1)N1CCCC1 | inactive: > 100 µM
CN(C)c1ccc(/C=C2\N=C(N/N=C/c3ccc(N(C)C)cc3)NC2=O)cc1 | inactive: > 100 µM
CC(c1cccc2ccccc12)/[N+]([O-])=C/c1ccccc1 (stereo not given) | inactive: > 100 µM
CC1=NC(=O)C(C)(c2ccccc2)N1CCc1ccccc1 (stereo not given) | inactive: 56.5 µM
O=C1c2ccccc2C(=O)C2C3c4ccccc4C(c4ccccc43)C12 (stereo not given) | inactive: 58.9 µM
CC(C)(C)[Si](C)(C)OCC1OC(n2cnc3c(N)ncnc32)CC1OS(C)(=O)=O (stereo not given) | inactive: > 100 µM

Compound | GI50
Cc1cc(C)n(C(=C(C(Cl)=C(Cl)Cl)[N+](=O)[O-])n2nc(C)cc2C)n1 | inactive: 4.1 µM
Cc1nc(C)c(N2CCNCC2)c(O)n1 | inactive: > 100 µM
Cc1cc(C)c2c(=O)n(CC(O)CN(Cc3ccccc3)CC(O)Cn3sc4nc(C)cc(C)c4c3=O)sc2n1 (stereo not given) | inactive: 18.5 µM
O=C(CSc1nc2ccc(I)cc2c(=O)n1Cc1ccccc1)Nc1ccccc1 | inactive: 10.2 µM
C/C(=C\c1ccccc1)C(=O)NCc1ccc(C(=O)NCCc2c[nH]c3ccccc23)cc1 | inactive: > 100 µM
Cc1cccc2c1C(=O)OC2(C)c1cccc2ccccc12 (stereo not given) | inactive: 44.2 µM
CO[P@]1(=O)O[C@@H](c2ccccc2)[C@H](O)[C@@]1(O)c1ccccc1 | inactive: > 100 µM
COc1cccc(-c2cc(=O)c3cc(N4CCCCC4)ccc3[nH]2)c1 | active: 0.0156 µM
CNC(=S)NC(=S)N(C)C | inactive: > 100 µM
O=C(NCCCCCCCCNC(=O)c1cccc2ccccc12)c1cccc2ccccc12 | inactive: > 80.5 µM
COc1ccc(COCC[C@H](C)OC2OC(CO[Si](C)(C)C(C)(C)C)C(OC(=O)CCCN=[N+]=[N-])C(OC(=O)CCCN=[N+]=[N-])C2OC(=O)CCCN=[N+]=[N-])cc1 (stereo not given in full) | inactive: > 100 µM
CNc1ccc(C(=O)CC(O)CCC(C)C2OC(=O)CC(O)CC(=O)CC(O)CC(O)CC(O)CC(O)CC3(O)CC(O)C(C(=O)NCCN(C)C)C(CC(OC4OC(C)C(O)C(NC(=O)CN5CCN(C)CC5)C4O)\C=C/C=C\C=C/C=C/C=C/C=C\C=C/C2C)O3)cc1 (stereo not given) | inactive: 5.93 µM
CN(CCNC(=O)c1nn(-c2ccc(Cl)cc2Cl)c2c1Cc1ccccc1-2)CCNC(=O)c1nn(-c2ccc(Cl)cc2Cl)c2c1Cc1ccccc1-2 | inactive: 13.5 µM
CCSCCCN(CCCSCC)CCCSCC | inactive: > 100 µM
CC1(C)C2CCC1(CC(=O)O)C(Cl)C2 (stereo not given) | inactive: > 100 µM
CCN(CC)C(=O)CCNC(C)Cc1c[nH]c2ccccc12 (stereo not given) | inactive: > 100 µM
CN(C)c1ccc(/C=C/C(=O)O)cc1 | inactive: > 100 µM
COc1cc(OC)cc(-c2nc3cc(F)ccc3s2)c1 | inactive: 94.4 µM
C[C@]12C[C@@H](OC(=O)[C@]1(C)O)[C@@H]([C@]1(O)CC[C@H]3[C@@H]4C[C@H]5O[C@]56C[C@H]5O[C@H]5C(=O)[C@]6(C)[C@H]4CC[C@@]31C)C2 | inactive: > 50 µM
Cc1cnc2nc(-c3ccc4ccccc4c3)cc(O)c2c1 | active: 0.446 µM
CN(C)c1ccc(/C=C/c2ccc(S(N)(=O)=O)cc2)cc1 | inactive: 17.3 µM
